{
  "source": "the supplement of paper PMC8728848",
  "binders": {"B1": {"name": "F17aG (Escherichia coli), Q99003 (protein)", "chain": "MTNFYKVFLAVFILVCCNISQAAVSFIGSTENDVGPSLGSYSRTHAMDNLPFVYDTRNKIGYQNANVWHISKGFCVGLDGKVDLPVVGSLDGQSIYGLTEEVGLLIWMGDTKYSRGTAMSGNSWENVFSGWCVGANTASTQGLSVRVTPVILKRNSSARYSVQKTSIGSIRMRPYNGSSAGSVQTTVNFSLNPFTLNDTVTSCRLLTPSAVNVSLAAISAGQLPSSGDEVVAGTTSLKLQCDAGVTVWATLTDATTPSNRSDILTLTGASTATGVGLRIYKNTDSTPLKFGPDSPVKGNENQWQLSTGTETSPSVRLYVKYVNTGEGINPGTVNGISTFTFSYQ"}},
  "experiment_in_all_cases": "glycan array binding signal (z-score within array); higher = stronger binding",
  "settings_in_all_cases": "glycan notation: IUPAC condensed, linker removed",
  "key": {"Fuc(a1-2)Gal": {"biological_target": "Fuc(a1-2)Gal", "method_in_brief": "(§1)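 The binding signal is a Z-score computed within each array and averaged over linkers. Arrays of the same protein sequence at different concentrations or buffers were also averaged together. Data originate from 3228 arrays in the Consortium for Functional Glycomics database, kept only where the protein sequence was available.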"}, "Fuc(a1-2)Gal(b1-3)GalNAc": {"biological_target": "Fuc(a1-2)Gal(b1-3)GalNAc", "method_in_brief": "as §1"}, "[1]": {"biological_target": "Fuc(a1-2)Gal(b1-3)GalNAc(a1-3)[Fuc(a1-2)]Gal(b1-4)Glc", "method_in_brief": "as §1"}, "[2]": {"biological_target": "Fuc(a1-2)Gal(b1-3)GalNAc(a1-3)[Fuc(a1-2)]Gal(b1-4)GlcNAc", "method_in_brief": "as §1"}, "[3]": {"biological_target": "Fuc(a1-2)Gal(b1-3)GalNAc(b1-3)Gal", "method_in_brief": "as §1"}, "[4]": {"biological_target": "Fuc(a1-2)Gal(b1-3)GalNAc(b1-3)Gal(a1-4)Gal(b1-4)Glc", "method_in_brief": "as §1"}, "[5]": {"biological_target": "Fuc(a1-2)Gal(b1-3)GalNAc(b1-4)[Neu5Ac(a2-3)]Gal(b1-4)Glc", "method_in_brief": "as §1"}, "Fuc(a1-2)Gal(b1-3)GlcNAc": {"biological_target": "Fuc(a1-2)Gal(b1-3)GlcNAc", "method_in_brief": "as §1"}, "[6]": {"biological_target": "Fuc(a1-2)Gal(b1-3)GlcNAc(b1-2)Man(a1-3)[Fuc(a1-2)Gal(b1-3)GlcNAc(b1-2)Man(a1-6)]Man(b1-4)GlcNAc(b1-4)GlcNAc", "method_in_brief": "as §1"}, "[7]": {"biological_target": "Fuc(a1-2)Gal(b1-3)GlcNAc(b1-2)Man(a1-3)[Fuc(a1-2)Gal(b1-3)GlcNAc(b1-2)Man(a1-6)]Man(b1-4)GlcNAc(b1-4)[Fuc(a1-6)]GlcNAc", "method_in_brief": "as §1"}, "[8]": {"biological_target": "Fuc(a1-2)Gal(b1-3)GlcNAc(b1-3)Gal(b1-4)Glc", "method_in_brief": "as §1"}, "[9]": {"biological_target": "Fuc(a1-2)Gal(b1-3)GlcNAc(b1-3)GalNAc", "method_in_brief": "as §1"}, "[10]": {"biological_target": "Fuc(a1-2)Gal(b1-3)GlcNAc(b1-3)[Fuc(a1-3)[Gal(b1-4)]GlcNAc(b1-6)]Gal(b1-4)Glc", "method_in_brief": "as §1"}, "[11]": {"biological_target": "Fuc(a1-2)Gal(b1-3)GlcNAc(b1-3)[Gal(b1-4)GlcNAc(b1-6)]Gal(b1-4)Glc", "method_in_brief": "as §1"}, "[12]": {"biological_target": "Fuc(a1-2)Gal(b1-3)GlcNAc(b1-3)[Neu5Ac(a2-6)Gal(b1-4)GlcNAc(b1-6)]Gal(b1-4)Glc", "method_in_brief": "as §1"}, "[13]": {"biological_target": "Fuc(a1-2)Gal(b1-3)[Fuc(a1-4)]GlcNAc", "method_in_brief": "as §1"}, "[14]": {"biological_target": "Fuc(a1-2)Gal(b1-3)[Fuc(a1-4)]GlcNAc(b1-2)Man(a1-3)[Fuc(a1-2)Gal(b1-3)[Fuc(a1-4)]GlcNAc(b1-2)Man(a1-6)]Man(b1-4)GlcNAc(b1-4)GlcNAc", "method_in_brief": "as §1"}, "[15]": {"biological_target": "Fuc(a1-2)Gal(b1-3)[Fuc(a1-4)]GlcNAc(b1-3)[Fuc(a1-3)[Gal(b1-4)]GlcNAc(b1-6)]Gal(b1-4)Glc", "method_in_brief": "as §1"}, "[16]": {"biological_target": "Fuc(a1-2)Gal(b1-3)[Fuc(a1-4)]GlcNAc(b1-3)[Gal(b1-4)GlcNAc(b1-6)]Gal(b1-4)Glc", "method_in_brief": "as §1"}, "Fuc(a1-2)Gal(b1-4)Glc": {"biological_target": "Fuc(a1-2)Gal(b1-4)Glc", "method_in_brief": "as §1"}, "Fuc(a1-2)Gal(b1-4)Glc6S": {"biological_target": "Fuc(a1-2)Gal(b1-4)Glc6S", "method_in_brief": "as §1"}, "Fuc(a1-2)Gal(b1-4)GlcNAc": {"biological_target": "Fuc(a1-2)Gal(b1-4)GlcNAc", "method_in_brief": "as §1"}, "[17]": {"biological_target": "Fuc(a1-2)Gal(b1-4)GlcNAc(b1-2)Man(a1-3)[Fuc(a1-2)Gal(b1-4)GlcNAc(b1-2)Man(a1-6)]Man(b1-4)GlcNAc(b1-4)GlcNAc", "method_in_brief": "as §1"}, "[18]": {"biological_target": "Fuc(a1-2)Gal(b1-4)GlcNAc(b1-2)Man(a1-3)[Fuc(a1-2)Gal(b1-4)GlcNAc(b1-2)Man(a1-6)]Man(b1-4)GlcNAc(b1-4)[Fuc(a1-6)]GlcNAc", "method_in_brief": "as §1"}, "[19]": {"biological_target": "Fuc(a1-2)Gal(b1-4)GlcNAc(b1-2)[Fuc(a1-2)Gal(b1-4)GlcNAc(b1-4)]Man(a1-3)[Fuc(a1-2)Gal(b1-4)GlcNAc(b1-2)Man(a1-6)]Man(b1-4)GlcNAc(b1-4)GlcNAc", "method_in_brief": "as §1"}, "[20]": {"biological_target": "Fuc(a1-2)Gal(b1-4)GlcNAc(b1-3)Gal(b1-4)GlcNAc", "method_in_brief": "as §1"}, "[21]": {"biological_target": "Fuc(a1-2)Gal(b1-4)GlcNAc(b1-3)Gal(b1-4)GlcNAc(b1-3)Gal(b1-4)GlcNAc", "method_in_brief": "as §1"}, "[22]": {"biological_target": "Fuc(a1-2)Gal(b1-4)GlcNAc(b1-3)GalNAc", "method_in_brief": "as §1"}, "[23]": {"biological_target": "Fuc(a1-2)Gal(b1-4)GlcNAc(b1-3)[Fuc(a1-2)Gal(b1-4)GlcNAc(b1-6)]GalNAc", "method_in_brief": "as §1"}, "[24]": {"biological_target": "Fuc(a1-2)Gal(b1-4)GlcNAc6S", "method_in_brief": "as §1"}},
  "note": "The list shows a part of the results.",
  "data": [
    {"binder": "B1", "values": [
      {"measurement": "glycan array binding signal (z-score)", "setting": "Fuc(a1-2)Gal", "result": -0.247},
      {"measurement": "glycan array binding signal (z-score)", "setting": "Fuc(a1-2)Gal(b1-3)GalNAc", "result": -0.212},
      {"measurement": "glycan array binding signal (z-score)", "setting": "[1]", "result": -0.158},
      {"measurement": "glycan array binding signal (z-score)", "setting": "[2]", "result": -0.133},
      {"measurement": "glycan array binding signal (z-score)", "setting": "[3]", "result": 0.952},
      {"measurement": "glycan array binding signal (z-score)", "setting": "[4]", "result": -0.23},
      {"measurement": "glycan array binding signal (z-score)", "setting": "[5]", "result": -0.252},
      {"measurement": "glycan array binding signal (z-score)", "setting": "Fuc(a1-2)Gal(b1-3)GlcNAc", "result": -0.245},
      {"measurement": "glycan array binding signal (z-score)", "setting": "[6]", "result": -0.15},
      {"measurement": "glycan array binding signal (z-score)", "setting": "[7]", "result": -0.125},
      {"measurement": "glycan array binding signal (z-score)", "setting": "[8]", "result": -0.243},
      {"measurement": "glycan array binding signal (z-score)", "setting": "[9]", "result": -0.129},
      {"measurement": "glycan array binding signal (z-score)", "setting": "[10]", "result": -0.148},
      {"measurement": "glycan array binding signal (z-score)", "setting": "[11]", "result": -0.174},
      {"measurement": "glycan array binding signal (z-score)", "setting": "[12]", "result": -0.153},
      {"measurement": "glycan array binding signal (z-score)", "setting": "[13]", "result": -0.226},
      {"measurement": "glycan array binding signal (z-score)", "setting": "[14]", "result": -0.169},
      {"measurement": "glycan array binding signal (z-score)", "setting": "[15]", "result": -0.139},
      {"measurement": "glycan array binding signal (z-score)", "setting": "[16]", "result": -0.151},
      {"measurement": "glycan array binding signal (z-score)", "setting": "Fuc(a1-2)Gal(b1-4)Glc", "result": -0.228},
      {"measurement": "glycan array binding signal (z-score)", "setting": "Fuc(a1-2)Gal(b1-4)Glc6S", "result": -0.123},
      {"measurement": "glycan array binding signal (z-score)", "setting": "Fuc(a1-2)Gal(b1-4)GlcNAc", "result": -0.212},
      {"measurement": "glycan array binding signal (z-score)", "setting": "[17]", "result": -0.166},
      {"measurement": "glycan array binding signal (z-score)", "setting": "[18]", "result": -0.177},
      {"measurement": "glycan array binding signal (z-score)", "setting": "[19]", "result": -0.163},
      {"measurement": "glycan array binding signal (z-score)", "setting": "[20]", "result": -0.259},
      {"measurement": "glycan array binding signal (z-score)", "setting": "[21]", "result": -0.258},
      {"measurement": "glycan array binding signal (z-score)", "setting": "[22]", "result": -0.165},
      {"measurement": "glycan array binding signal (z-score)", "setting": "[23]", "result": 0.305},
      {"measurement": "glycan array binding signal (z-score)", "setting": "[24]", "result": -0.172}
    ]}
  ]
}
